Paper PMC4336329 (PLoS ONE, 2015)
The campaign covered roughly 310,000 compounds. About 14,000 (4.5%) showed an effect of 50% or more. The effect is printed as a negative number. The list shows a part of the results.

molecular target: human ether-à-go-go-related gene (hERG) potassium channel (human, UniProt Q12809); assay: primary screen, population patch clamp on CHO cells stably expressing hERG
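Note: peak tail current of the secondary pulse compared with the same well before compound.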

Chain of human ether-à-go-go-related gene (hERG) potassium channel (Q12809 whole entry, looked up): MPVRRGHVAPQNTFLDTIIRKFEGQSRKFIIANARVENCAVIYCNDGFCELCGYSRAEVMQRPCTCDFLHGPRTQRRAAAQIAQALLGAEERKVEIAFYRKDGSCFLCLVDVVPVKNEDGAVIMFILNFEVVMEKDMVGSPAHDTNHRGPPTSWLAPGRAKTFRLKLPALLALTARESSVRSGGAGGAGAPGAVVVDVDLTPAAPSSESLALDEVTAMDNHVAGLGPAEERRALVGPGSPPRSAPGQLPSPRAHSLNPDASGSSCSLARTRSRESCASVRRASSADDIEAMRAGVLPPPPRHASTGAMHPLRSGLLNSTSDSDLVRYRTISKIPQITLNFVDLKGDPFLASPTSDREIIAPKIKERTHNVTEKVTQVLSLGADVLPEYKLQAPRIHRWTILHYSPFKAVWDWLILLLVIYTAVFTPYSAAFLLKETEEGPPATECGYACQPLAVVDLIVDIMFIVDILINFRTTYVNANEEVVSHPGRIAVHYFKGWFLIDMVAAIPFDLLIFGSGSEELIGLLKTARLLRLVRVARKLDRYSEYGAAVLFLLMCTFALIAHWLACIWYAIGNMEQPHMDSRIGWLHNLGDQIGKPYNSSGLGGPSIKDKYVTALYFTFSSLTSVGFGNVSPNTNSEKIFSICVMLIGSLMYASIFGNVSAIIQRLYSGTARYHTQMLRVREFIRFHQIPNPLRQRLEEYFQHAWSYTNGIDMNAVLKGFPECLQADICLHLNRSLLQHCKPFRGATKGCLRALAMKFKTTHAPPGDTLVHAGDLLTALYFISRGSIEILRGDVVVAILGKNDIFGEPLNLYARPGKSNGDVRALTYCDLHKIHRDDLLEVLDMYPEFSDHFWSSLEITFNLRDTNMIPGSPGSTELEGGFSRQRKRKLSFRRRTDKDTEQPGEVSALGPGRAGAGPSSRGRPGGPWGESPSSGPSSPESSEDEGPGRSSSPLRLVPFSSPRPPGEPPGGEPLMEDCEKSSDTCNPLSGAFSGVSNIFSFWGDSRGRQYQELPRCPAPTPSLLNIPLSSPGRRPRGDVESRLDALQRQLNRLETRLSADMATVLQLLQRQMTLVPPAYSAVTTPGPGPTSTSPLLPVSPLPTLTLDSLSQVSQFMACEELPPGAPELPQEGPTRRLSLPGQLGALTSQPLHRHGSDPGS

Structure (SMILES) | hERG current change (%, negative = inhibition) at 10uM [%]
CCOC(=O)c1ccc(Nc2c(OCC)c(=O)c2=O)cc1 | -15.4
N/C(=N\OC(=O)COc1ccc(Cl)cc1Cl)c1ccccn1 | 3.46
CCN(CC)S(=O)(=O)N1CCC(C(=O)NCc2ccc3c(c2)OCO3)CC1 | -1.84
Cc1cc(=S)[nH]c2c(C)cccc12 | 17.4
COc1ccc(-c2cc(C#N)nc(Cl)n2)cc1 | -2.88
CN1CCN(CCCNC(=O)c2nnc(Cc3c(F)cccc3Cl)o2)CC1 | -3.44
CCCN(CC(=O)Nc1ccc(Cl)cc1Cl)C(=O)/C=C/c1ccco1 | -38.5
O=C(CCCNC(=O)c1ccc(Cl)cc1)Nc1cccc(F)c1 | 8.06
O=C(NCCc1cccnc1)C1CCC(=O)N(CCc2cccc(F)c2)C1 (stereo not drawn) | 7.99
Cc1ccc(S(=O)(=O)c2c(C)cc(C)nc2N2CCOCC2)cc1 | -0.51
CC(C)(C)C(=O)/C=C(\N)c1ccccn1 | -1.36
Cc1ccc(-n2c(C)nnc2SCC(=O)NC2CC2)cc1 | 4.93
CCn1nccc1C(=O)Nc1cc(Cl)cc(Cl)c1 | -12.8
Cc1ccc(C(=O)Nc2nnc(S(=O)(=O)Nc3ccccc3C)s2)cc1C | 10.8
NC(=O)C[n+]1cccc(C(N)=O)c1.[Cl-] | 12.8
O=C(Nc1ccccc1)/C(=C/c1ccccc1)c1ccccc1 | -11.5
Cc1ccc(NC(=O)CCN2C(=O)c3cccc4cccc(c34)C2=O)cc1 | 9.71
CCN(CC)C(=O)Cn1cc(C(=O)C(=O)N2CCN(c3ccc([N+](=O)[O-])cc3)CC2)c2ccccc21 | -65.8
O=C(Nc1ccc(Cl)c(S(=O)(=O)N2CCOCC2)c1)c1cc(=O)[nH]c2ccccc12 | -2.26

Structure (SMILES) | hERG current change (%, negative = inhibition) at 10uM [%]
CCc1cc2ccc(OC)cc2nc1SCC(=O)N1CCN(C(=O)c2ccco2)CC1 | -49.1
[Cl-].c1ccc(-c2c[nH]c3[n+]2CCCCC3)cc1 | -2.27
O=C(CC12CC3CC(CC(C3)C1)C2)NCc1ccc(F)cc1 | 17.4
COc1ccc(CCNCc2cccn2C)cc1OC.Cl | 11.7
CC(=O)c1cc2c(cc1NC(=O)CN1CCCCCC1)OCO2.O=C(O)C(=O)O | -6.97
O=C1CN(C(=O)c2ccccc2Cl)c2ccccc2N1 | 12.5
O=C(CN1CCC(n2nnc3cc(F)ccc32)CC1)NCCc1ccccc1 | -41.5
O=C(CN1C(=O)c2ccccc2S1(=O)=O)c1ccccc1F | -0.476
CN(Cc1cccs1)C(=O)CSc1nc(N)cc(N)n1 | 17.4
O=C(NCc1ccc(Cl)cc1)N1CCN(S(=O)(=O)c2ccccc2)CC1 | 0.401
CN(C)CCN(Cc1ccco1)C(=O)c1cc2c(Cl)nc3ccccc3c2s1 | -70.1
COCCn1c(-c2ccc(OC)c(OC)c2)nc2ccccc21 | -21.6
O=C(NC(=S)N1CCCCCC1)c1ccc(Cl)cc1Cl | 22.9
Cc1cccc(OCCOC(=O)C2CCN(S(=O)(=O)c3ccc(C)c(C)c3)CC2)c1 | 10.7
O=C(CCC(=O)CCN1CCCCC1)CCN1CCCCC1 | -3.13
CC1=C(C)/C(=N\OC(=O)/C=C/c2ccccc2)C=CC1=O | 16.3
O=C(NNC(=O)c1ccccc1[N+](=O)[O-])c1ccc(NC(=O)c2ccccc2)cc1 | 8.72
O=C(CNc1cccc(Cl)c1)NNC(=S)NCc1ccccc1 | 16.5
CCN1CCN(S(=O)(=O)c2ccc(Cl)c(C(=O)N(C)C(c3ccccc3)c3ccccc3)c2)CC1 | -50.5

Structure (SMILES) | hERG current change (%, negative = inhibition) at 10uM [%]
Br.FC(F)(F)c1ccc(N2CCOCC2)c(NC2=NCCCCC2)c1 | 6.39
O=C(CC1S/C(=N/N=C2CCCCCC2)NC1=O)Nc1ccc(Br)cc1F (stereo not drawn) | -10.5
Cl.O=C(CN1CCOCC1)NC1C2CC3CC(C2)CC1C3 (stereo not drawn) | 3.87
Cc1cc(C)cc(NC(=O)CN2CCc3cc4c(cc3C2C)OCCCO4)c1 (stereo not drawn) | 3.67
Cc1cc(C)c(NC(=O)c2cnn(C)c2)c(C)c1 | -3.05
Cn1c(=O)c2sccc2n2c(CCCC(=O)Nc3ccc(F)cc3F)nnc12 | 24.9
O=C(CCSc1ccc(F)cc1)NNC(=O)c1ccccc1Cl | -2.07
COc1ccccc1/C=N\Nc1cc(C)nc(-n2nc(C)cc2C)n1 | 4.17
CCCNC(=O)c1oc2ccc3c(c2c1C)C(O)CC(C)(C)O3 (stereo not drawn) | 3.32
COc1cccc(C=Nc2ccccc2C(=O)Nc2nccs2)c1OC | 4.39
COc1cccc(CNC(=O)CCCN2C(=O)C(c3ccccc3)Oc3cccnc32)c1OC (stereo not drawn) | 16.4
O=C(N1CCCCC1)C1(S(=O)(=O)c2ccccc2)CC=CC1 | -4.51
O=C(NC1CCCCC1)C1CCCN(S(=O)(=O)c2cccs2)C1 (stereo not drawn) | 11.3
CN1C(=O)[C@@H]2[C@@H]3C[C@@H]([C@H]4ON=C(c5ccc(Cl)cc5Cl)[C@@H]34)[C@@H]2C1=O | -28.6
Cc1cccc(NC(=O)c2ccc(COc3ccc(Cl)cc3Cl)o2)n1 | 17.8
O=C(/C=C/c1ccc(Cl)cc1)Nn1c(-c2cccs2)nc2ccccc2c1=O | 16.9
O=C(Nc1ccc(N2CCCCC2)c(C(=O)O)c1)c1ccco1 | 3.38
Cc1cc(C(=O)OCC(=O)c2cccc([N+](=O)[O-])c2)c2ccccc2n1 | 6.56
C=CCn1c(C2CC(=O)N(c3ccc(C)cc3)C2)nc2ccccc21 (stereo not drawn) | -58.4
